Data reported in the supplement of paper PMC3334620.
Whole data set: some 33,000 sequences, median “E-score (-0.5 to 0.5)” near -0.016, cut for the highest 2% near 0.32. The list shows a part of the results.

Biological target: T1, Stp1 (UniProt B3LFK1)
T1 sequence: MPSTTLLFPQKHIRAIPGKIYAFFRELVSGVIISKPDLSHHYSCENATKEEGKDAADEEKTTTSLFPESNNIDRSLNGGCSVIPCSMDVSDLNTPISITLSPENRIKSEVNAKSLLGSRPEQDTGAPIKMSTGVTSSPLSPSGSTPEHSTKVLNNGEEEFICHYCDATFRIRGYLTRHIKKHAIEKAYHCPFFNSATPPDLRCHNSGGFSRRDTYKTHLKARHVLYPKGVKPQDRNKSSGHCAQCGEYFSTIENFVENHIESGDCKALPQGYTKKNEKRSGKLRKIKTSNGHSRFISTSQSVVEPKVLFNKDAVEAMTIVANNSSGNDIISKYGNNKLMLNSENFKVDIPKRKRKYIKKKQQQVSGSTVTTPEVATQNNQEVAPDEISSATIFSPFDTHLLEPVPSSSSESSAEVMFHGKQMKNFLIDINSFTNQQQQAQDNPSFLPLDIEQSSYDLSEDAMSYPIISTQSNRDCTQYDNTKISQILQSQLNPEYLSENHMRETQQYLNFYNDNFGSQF
Assay: PBM E-score (8-mer binding enrichment) (E-score (-0.5 to 0.5)); higher = stronger / more preferred TF binding; most listed sequences are background and not binding sites
Conditions: protein concentration: 200 nM; construct: GST-full length
Procedure, shortened: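 Detection of bound protein used fluorescent anti-GST, with scans normalised by masliner. The proteins were GST-tagged yeast transcription factors applied at about 100-200 nM to universal all-10-mer Agilent arrays made double-stranded by primer extension. Each ungapped eight-base word, pooled with its reverse complement, was scored with an E-score from the Universal PBM Analysis Suite.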

Sequence | PBM E-score
CTTGGGAC | -0.13
CGTAAACG | 0.151
CTACTCCC | -0.279
ATGATATA | 0.0105
AGGTGTAT | 0.146
ATTTAGTG | 0.0749
AGAGTCTC | -0.264
CCGCAATC | 0.0224
AGGGGATA | -0.26
CCTTAACA | 0.0522
ATACGAAG | 0.0582
AAATAAAC | 0.218
CCGACAGC | -0.148
CGGGTTGC | -0.111
AAGTCTGT | -0.193
CTACCGTA | -0.0539
ACCGTTTC | 0.0865
GACCGCCC | -0.347
CAGCGCTG | 0.0953
CCGTAGGA | 0.0991
GATCAATC | -0.0857
GCCAACGC | 0.245
AAACAGGA | -0.0614
TAATGCAA | 0.134
ATCTCTCC | -0.017

Sequence | PBM E-score
AAGACGAA | 0.0123
CAAATATG | 0.12
CTAACCAG | -0.075
CCCTTTAG | -0.219
CTACTAGA | -0.0772
ATCAAGGC | -0.0478
CCGGGGTC | -0.173
ATGGCTGG | -0.207
ACATCCGT | 0.0921
CACCAGCA | -0.224
CTCAGCAC | -0.116
GATCACCA | 0.143
ACGCAACA | 0.114
CGGGTTGA | -0.114
CCTGGAAA | -0.121
AAACGGCC | 0.368
GTGATGCA | 0.169
GTTCCCTA | -0.0821
ACTACGAA | 0.128
GCTACCTA | -0.146
CCTTCGCA | 0.0202
GTGGAGAA | -0.0885
TACGCGTA | 0.0156
AGTCCGCA | 0.106
CGTCCGTC | -0.144

Sequence | PBM E-score
TAAATTTA | 0.226
CGATAATA | 0.0751
GATCACTA | -0.0451
AACGTCCG | -0.122
TCTTGTCA | 0.0645
AACCATCT | -0.176
AGTTTAGG | -0.22
CACGATGC | 0.0991
ATGGGTAC | -0.154
TAAAGCGA | 0.00495
ACAAAAGA | 0.247
GAGCGGTA | 0.058
CTTCGTCC | -0.0786
CATAGATC | -0.0519
CGGAAAAC | 0.00742
GGACTACA | 0.0189
GCTGATAA | 0.129
CGTTCGAA | 0.251
AATGCAGA | 0.155
CCCCTCGC | -0.209
ATTACAAT | 0.116
ATTCGTCG | -0.0259
AACGTATA | 0.0584
CGCATGAG | 0.0104
CACTCCCA | -0.0767

Sequence | PBM E-score
AACTAAAA | 0.0204
AAACTACG | 0.0983
TGGTGTAA | -0.0309
AGAGCCTC | 0.126
CTGGCTCC | -0.205
CAGAGATA | 0.0566
GTTCCTTA | 0.0691
ACGGGAAG | -0.138
CAGAGTAA | -0.121
AATGCGTC | -0.188
CGGCTACC | 0.226
CCAGGAAG | -0.0847
GCTAGTAC | -0.0494
AACTGTAT | 0.129
CCTCATAG | 0.0198
AATAGTGA | 0.0984
AGGGAGTG | -0.0747
AGCACGTG | 0.225
AGAGGCAG | -0.125
ACTAGCCC | -0.0796
TCATCGCA | -0.0449
AGAATGGC | 0.119
ACAACACA | 0.0707
CAACCGAA | 0.0205
GCGGGTAC | 0.0426

Sequence | PBM E-score
ACGGTAAG | 0.106
AAGGGACC | -0.176
AACGAAAT | 0.166
AGGCAACT | 0.18
TATCCTCA | -0.00916
AACTCCGT | 0.221
AAGAAAGC | -0.0454
AGTTCGAT | -0.0251
AATGGGGG | -0.295
ACAGCCAT | 0.02
GAGAATAA | 0.12
CCCCGTGA | -0.14
CGCAGGTC | -0.0638
AAGAAATC | 0.133
AAAGCACA | -0.0775
AACCTGCA | -0.126
GGTTACAA | 0.154
AATACATA | 0.131
AACGGGCG | 0.154
GGATAAAC | 0.144
AAACTAGC | -0.104
GATCTCAA | 0.0503
ACTGGCAC | 0.0514
CTGAGACC | -0.128
GGATGGCC | -0.237

Sequence | PBM E-score
AGTGCCAA | -0.0972
AGCGAGTA | 0.0239
ATACCTAA | 0.0611
ATACGCCG | 0.381
GGGTTTAC | -0.0641
TATAAATA | 0.198
CATTAGAC | -0.0775
GAGGGGTA | -0.311
GCTCATGA | -0.126
AGAGCGAA | 0.0162
ACAACGCA | 0.0219
CCACTAAA | -0.0975
AGTTGGAG | -0.105
GCAACCAC | -0.14
ACGTTGCC | 0.1
ACCCATTG | -0.281
CTGGTCTC | -0.282
GAACTGAC | 0.0623
GATTGGAC | -0.104
TAATCCCA | -0.219
ATCCGTCG | 0.0183
CCTATCTA | -0.0488
ATGGAATA | 0.209
AAAACCAG | 0.18
CCTAGAAC | 0.0102

Sequence | PBM E-score
CGCCTCAG | 0.289
ATTTGATC | 0.0111
AATACCCC | -0.24
CAACGCGC | 0.272
AGCAACAA | 0.173
ACGGTGAT | -0.0253
ATATTGCG | 0.0775
GTCCTCGA | -0.0817
ACTCATTA | 0.165
ACAGAGCA | 0.0782
AATATCTC | 0.0625
GTCCGGAA | 0.0408
ACTAGGCA | -0.0294
CATCGTGG | -0.11
ACCGTGGG | -0.27
TGCAGTAA | -0.092
ATTGGGTG | -0.114
ATTTTGCC | 0.218
CACGCACG | 0.203
ACAGAGAT | 0.0572
CGTAGTGA | -0.00456
ACGGCAGC | 0.406
ACATACTC | -0.19
AATGTAGC | -0.0806
GACACCAC | -0.11

Sequence | PBM E-score
AGATAAAT | 0.0658
AGGAGGGA | -0.203
GTTTCAAA | 0.0493
AGGTCGCA | -0.172
GCAGCTCA | -0.188
TGATAACA | 0.103
CAGCGATC | -0.127
ACTGCGTG | -0.14
GCAATCTA | -0.0152
TAAAGAGA | 0.0051
GTCACTCA | 0.02
CAGGCGGA | 0.0994
ATTTGCAA | 0.176
ATCACTAC | -0.158
TGTCTTAA | 0.0569
AGTTCGGA | 0.055
AAAATCAA | 0.149
AACACCGC | -0.0137
GGAACGCC | -0.0222
ACGGCCTG | 0.0977
CCACCTGA | -0.00421
AAAACCTA | 0.0597
CCGTACCC | 0.245
CGCCGCCA | 0.154
ACCTCTAT | -0.00323

Sequence | PBM E-score
GTTTAATA | 0.173
AAGCCGAA | 0.116
ACTGACTA | -0.176
TACCTATA | -0.166
TCCGGACA | -0.0452
AATCCAAG | 0.038
AAGTAAAA | 0.12
AAGTGTCA | -0.295
GCACACAA | 0.122
ACTCGGCA | 0.324
GCCACTAA | -0.0784
GCTCGTAA | -0.0259
AACGCTGC | -0.0387
ATGATACC | 0.146
GTGCTCCA | -0.122
ACAAAAGC | 0.158
AGGGAGAT | -0.266
AAGTGAAC | -0.117
CAAATGTG | 0.186
